We go through 84 variants from the RNAGym collection of RNA variant scans (doi:10.1093/nar/gkz1192).

Read counts are not given, so values of variants with three or more changes are uncertain.

The chains are these.
B1: CPEB3 Ribozyme (parent)
chain: UAACAGGGGGCCACAGCAGAAGCGUUCACGUCGCAGCCCCUGUCAGAUUCUGGUGAAUCUGCGAAUUCUGCUGUAUAUCUC

In this data set the parent is B1. The experiment in a line: self-cleavage, relative activity (ratio to wild type); higher = more cleavage; in vitro, sequencing. Put shortly:
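Relative activity compares each variant's cleaved/total read fraction with that of the unmutated ribozyme. To get these fractions, barcoded CPEB3 ribozyme libraries from rounds of error-prone PCR were transcribed with T7 RNA polymerase for 5 hours at 37°C and then given 15 min of DNase I treatment before EDTA was added. The RNAs were reverse transcribed with template switching and sequenced on Illumina, and DNA sequencing linked barcodes to variants. A minimum of 5 reads applied, and three batches were averaged.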
As to A13G U49C U51A U69A U78G, the self-cleavage was 0.15.
On to A13U A20G A64G U78C, for which the self-cleavage is 0.55.
For A13G U76C U80A, the self-cleavage was found to be 1.21.
Consider A13U A35G A57G G63U, for which the self-cleavage came out at 1.28.
For A13U C23U A28G U43A C81A, the self-cleavage was 0.16.
Take A13U C32U A56G: the self-cleavage was determined as 0.13.
Turning to A13U A77G U80A, the self-cleavage was 1.14.
For the variant A13U C37U A56U, the self-cleavage worked out at 0.21.
Turning to A13U U25C U41A U48C U74A, the self-cleavage was found to be 0.12.
Then A13U A45G A47G U54C U67C G70A A75C, with 0.08; and A13U A45G U51A U60A U67A, with 0.41; and C14G U25C C27U A56C, with 0.06.
With A13U A21G U26C U80C, the self-cleavage was 0.39.
As for A13U U49C A64C, the self-cleavage was 0.39.
For the variant A13U G46U U58C U60A, the self-cleavage was found to be 0.1.
Consider A13G U58A G73U, for which the self-cleavage was 0.3.
As to A13U A20G A45U A77U, the self-cleavage turned out to be 0.3.
For A13U A35G U41A, the self-cleavage is 0.42.
Take A13G U54A A77C U80C: the self-cleavage turned out to be 0.72.
For the variant A13U C14U A35G A45G A56U U66C, the self-cleavage was determined as 0.68.
Then A13U C23G A28G C38U A57G A64U, with 0.03; and A13U U31A A35U, with 0.14; and C14A U25G U43A A75U, with 0.48.
Turning to A13U A21U U26C A28U A64C U80C, the self-cleavage is 0.07.
Then C14U A15G U31A A35G A47G U49C, with 0.57; and C14G U41C A45G C50A U54A, with 0.89; and C14G A15C A20G A21G U26C, with 0.58.
For the variant A13U A15G A64G U78A, the self-cleavage was 0.74.
As for A13U A28G A45U U60A U66C, the self-cleavage came to 0.2.
As to A13U A15G A28G U48C A56G U66C, the self-cleavage stood at 0.15.
Then A13U U31A C38A, with 0.38; and A13U A56U U66G, with 0.28.
Then A13U A15U A64G U66C, with 0.17.
In the case of A13U C14A U49C U67C U69A, the self-cleavage was 0.16.
Then C14G U25C U74A, with 0.32; and A13U A18G U43C U58C, with 0.17; and A13U C27U A77G, with 0.24.
As for A13U U31A G33U C62U, the self-cleavage came out at 0.07.
As to A13U G30A A57U A65G, the self-cleavage was found to be 0.33.
As to A13G U60C U67C A77G U80C, the self-cleavage came out at 0.14.
Take A13U G55A U60C: the self-cleavage stood at 0.27.
Then A13G U58A U72C, with 0.2.
For A13U A21U C37G G55U U58C U69A, the self-cleavage was determined as 0.13.
The same measure for A13U U25C C29G C40G U72A: 0.07; for A13U U72C U74C: 1.19.
Then A13U A15U G24C U31C A56G A57U U69A, with 0.05; and A13U A28U A56G A57G, with 0.18.
For C14U A15G C59G A64G, the self-cleavage was determined as 0.1.
Take A13U G24A U43A U54C: the self-cleavage came to 0.08.
A13U U26A A57G U72A: the self-cleavage came out at 0.2.
Consider A13U A21G A45G, for which the self-cleavage was 0.27.
For the variant A13U G33A U49C, the self-cleavage amounted to 0.32.
A13U A28G C40U G53C U78G: the self-cleavage worked out at 0.56.
Consider C14A G19A U76A U80A, for which the self-cleavage is 0.21.
The same measure for C14A U26G U31A: 0.09; for A13G U43C U60G: 0.25; for A13U A20C U26A G30U G63A: 0.04.
Turning to A13U G24A A28C U31C U49C, the self-cleavage was 0.13.
As for A13G U48C G55A G63U U72C U76C, the self-cleavage was determined as 0.24.
For the variant C14A G22C U31C U43A U60A U69C, the self-cleavage is 0.04.
Take A13U U51A C71U: the self-cleavage was 1.02.
Consider A13U A18G U43C U69C U76C, for which the self-cleavage stood at 1.14.
Turning to A13G U41A A64G, the self-cleavage is 0.13.
The same measure for A13U G30C U41C U60A C62G: 0.06; for A13U C40U U80C: 1.16; for A13U A15G A35G C71U A77G: 0.24.
As for C14U A15G A28U C32A A47G U76C, the self-cleavage amounted to 0.04.
The same measure for A13U A35U U41A A56U A57G U58A U80C: 0.12.
Then A13U A18G A21U A35U U43C C62U A65U, with 0.04; and A13U G16C U41A U51A A56G A57G, with 0.03.
Consider A13U U26A U41A A56G, for which the self-cleavage was 0.21.
Turning to A13U U31A A65U, the self-cleavage came to 0.1.
A13U A35G G61C U66A U69C: the self-cleavage is 0.78.
With A13U U26C U49G U80C, the self-cleavage worked out at 0.17.
Then A13U A35U U49C A64G, with 0.06; and A13G U69C U80A, with 0.43; and A13U A18U U25C U43C C59A U67C, with 0.1.
For C14A A35U U58C, the self-cleavage was 0.51.
On to A13U A35U C40G U41C A47G U60C A75C, for which the self-cleavage was found to be 0.07.
Regarding A13U G33A U51C A56C, the self-cleavage stood at 0.18.
Regarding C14A A56G A64U U74C, the self-cleavage is 0.66.
As for A13G U60C A65G A77G, the self-cleavage was determined as 0.25.
Then A13U A35C C38A U43C G52C, with 0.11; and A13U U48C A75U, with 0.77.
